Test results: PMC7477951 (Structure (London, England : 1993), 2019)

Molecular target: T1, human HVEM (L39-C162) expressed in Drosophila S2 cells (human, UniProt Q92956 39-162)
T1 sequence (looked up): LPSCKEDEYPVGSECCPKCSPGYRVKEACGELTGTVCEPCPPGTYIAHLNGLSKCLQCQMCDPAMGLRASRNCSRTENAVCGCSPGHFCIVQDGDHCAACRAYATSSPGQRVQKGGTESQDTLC
Experiment: SEC

B1: human BTLA ([…]), refolded (domain or fragment)
chain: not shown
  binding result: binds
